Data from PubChem BioAssay AID328 (DTP/NCI, 2004).
Toxic doses and inconclusive results are not listed. A number of entries come with more than one value. The list is limited to them. An entry can have further records. Values that stand side by side are repeated measurements across runs, samples, wells, individuals or studies.

System: BDF1 mice, P388 leukemia ip, median survival T/C
Assay: NCI In Vivo Anticancer Drug Screen. Data for tumor model P388 Leukemia (intraperitoneal) in B6D2F1 (BDF1) mice
Conditions: endpoint: median survival time, higher = longer survival
Method: The antitumor activity of compounds was measured in mice bearing transplantable tumors. Survival or tumor size were measured and the results are expressed as the measurement made in the treated group (T) divided by the measurement made in the vehicle treated control group (C). The tumor model used in this assay is P388 Leukemia (intraperitoneal) in B6D2F1 (BDF1) mice

[1] = dose: 100.0 mg/kg/injection, schedule: Q01DX009 (ip), vehicle: Klucel (hydroxypropylcellulose) (HPC)
[2] = dose: 75.0 mg/kg/injection, schedule: Q04DX003 (ip), vehicle: saline
[3] = dose: 400.0 mg/kg/injection, schedule: Q01DX009 (ip), vehicle: Klucel (hydroxypropylcellulose) (HPC)

With `O=C(c1ccccc1)C(Cl)C(=O)c1ccccc1` as the compound, how does the T/C (dose: 100.0 mg/kg/injection, schedule: Q01DX001 (ip), vehicle: saline with Tween-80) read?
Its T/C is 100 % of control and 160 % of control.

For `OCC1OC(n2cnc3cncnc32)C(O)C1O` (stereo not given), which T/C (dose: 3.13 mg/kg/injection, schedule: Q01DX009 (ip), vehicle: saline) is on record?
Its T/C is 122 % of control, 152 % of control, 160 % of control.

With `CCCC(=O)Nc1ccn(C2OC(COC(=O)CCC)C(OC(=O)CCC)C2OC(=O)CCC)c(=O)n1` (stereo not given) as the compound, how does the T/C [1] read?
The T/C was 122 % of control, 150 % of control, 168 % of control.

With `CCCCNP(=O)(N1CC1C)N1CC1C` (stereo not given) as the compound, how does the T/C [2] read?
The T/C was 108 % of control and 154 % of control.

`CC(C)C[C@H](O)C(=O)O` was tested. Which T/C (dose: 50.0 mg/kg/injection, schedule: Q01DX009 (ip), vehicle: saline) did it give?
Its T/C is 104 % of control and 150 % of control.

For `Cc1ccc(C2NC(=O)c3ccccc3N2)s1` (stereo not given), which T/C [3] is on record?
The T/C was 123 % of control, 188 % of control, 190 % of control.

For `Cc1c2oc3c(C)ccc(C(=O)NC4C(=O)NC(C(C)C)C(=O)N5CCCC5C(=O)N(C)CC(=O)N(C)C(C(C)C)C(=O)OC4C)c3nc-2c(C(=O)NC2C(=O)NC(C(C)C)C(=O)N3CCCC3C(=O)N(C)CC(=O)N(C)C(C(C)C)C(=O)OC2C)cc1=O` (stereo not given), which T/C (dose: 3.24 mg/kg/injection, schedule: Q04DX003 (ip), vehicle: saline + alcohol) is on record?
Its T/C is 117 % of control and 157 % of control.

For `CC1=Nc2ccccc2/C1=C\c1c(C)[nH]c2ccccc12`, which T/C (dose: 25.0 mg/kg/injection, schedule: Q01DX009 (ip), vehicle: Klucel (hydroxypropylcellulose) (HPC)) is on record?
The T/C was 95 % of control, 100 % of control, 166 % of control.

With `COCCOCCN1CCN(CCCN2c3ccccc3Sc3ccc(C(F)(F)F)cc32)CC1` as the compound, how does the T/C (dose: 6.25 mg/kg/injection, schedule: Q04DX003 (ip), vehicle: saline) read?
The T/C was 112 % of control and 161 % of control.

Which T/C (dose: 200.0 mg/kg/injection, schedule: Q01DX009 (ip), vehicle: water) does the source give for `CNCCN(C)CCN(C)Cc1ccc(OC)cc1` here?
The T/C was 101 % of control and 192 % of control.

`CCCCCCCCCCCC[N+](C)(C)C` (tested in a mixture with another compound) was tested. Which T/C (dose: 14.0 mg/kg/injection, schedule: Q01DX009 (ip), vehicle: saline) did it give?
The T/C was 107 % of control and 157 % of control.

For `CCCCCCCCCCCC[n+]1cccc2ccccc21`, which T/C (dose: 0.23 mg/kg/injection, schedule: Q01DX009 (ip), vehicle: saline) is on record?
The T/C was 100 % of control, 113 % of control, 160 % of control.

`Nc1nc(SCc2ccccn2)c2[nH]cnc2n1` was tested. Which T/C (dose: 100.0 mg/kg/injection, schedule: Q04DX003 (ip), vehicle: Klucel (hydroxypropylcellulose) (HPC)) did it give?
The T/C was 100 % of control and 150 % of control.

With `Cc1ccc(S(=O)(=O)OCCN(CCOS(=O)(=O)c2ccc(C)cc2)c2ccc(F)cc2)cc1` as the compound, how does the T/C (dose: 100.0 mg/kg/injection, schedule: Q01DX009 (ip), vehicle: other) read?
The T/C was 113 % of control, 163 % of control, 168 % of control.

`CCc1cc2c(cc1C(=O)CBr)C(C)(C)CCC2(C)C` was tested. Which T/C (dose: 35.0 mg/kg/injection, schedule: Q04DX003 (ip), vehicle: Klucel (hydroxypropylcellulose) (HPC)) did it give?
Its T/C is 115 % of control and 155 % of control.

Which T/C (dose: 50.0 mg/kg/injection, schedule: Q01DX009 (ip), vehicle: Klucel (hydroxypropylcellulose) (HPC)) does the source give for `CCC(c1ccc2cc(OC)ccc2c1)C(C)(C)C(=O)F` (stereo not given) here?
The T/C was 104 % of control and 155 % of control.

With `O=NN(CCCl)C(=O)NC1CCCCC1` as the compound, how does the T/C (dose: 40.0 mg/kg/injection, schedule: Q01DX001 (oral), vehicle: carboxymethylcellulose (CMC)) read?
Its T/C is 124 % of control and 191 % of control.

How did the T/C (dose: 1.7 mg/kg/injection, schedule: Q04DX003 (ip), vehicle: saline) turn out when `c1ccc([P+](c2ccccc2)(c2ccccc2)c2ccccc2)cc1` was run?
Its T/C is 110 % of control and 154 % of control.

For `O=C(NO)c1ccccc1`, which T/C [3] is on record?
The T/C was 109 % of control, 154 % of control, 179 % of control.

For `Nc1ncc(CNc2ccc(C(=O)NC(CCC(=O)O)C(=O)O)cc2)c(N)n1` (stereo not given), which T/C [1] is on record?
Its T/C is 99 % of control and 150 % of control.

`CCC(C)P(=O)(N1CC1)N1CC1` (stereo not given) was tested. Which T/C (dose: 16.5 mg/kg/injection, schedule: Q04DX003 (ip), vehicle: saline) did it give?
The T/C was 120 % of control and 181 % of control.

What about the T/C (dose: 25.0 mg/kg/injection, schedule: Q04DX003 (ip), vehicle: saline) of the same compound?
The T/C was 86 % of control and 170 % of control.

Which T/C (dose: 3.0 mg/kg/injection, schedule: Q01DX009 (ip), vehicle: saline with Tween-80) does the source give for `CCC[CH2][Sn]1([CH2]CCC)[O]OC(c2ccccc2)[O]1` (stereo not given) here?
Its T/C is 110 % of control and 150 % of control.

How did the T/C (dose: 100.0 mg/kg/injection, schedule: Q01DX009 (ip), vehicle: saline) turn out when `O=C1CCCN1.O=C1CCCN1.[Br][Co][Br]` was run?
Its T/C is 95 % of control and 154 % of control.

`CCC1CN1CC1CO1` (stereo not given) was tested. Which T/C (dose: 132.0 mg/kg/injection, schedule: Q04DX003 (ip), vehicle: Klucel (hydroxypropylcellulose) (HPC)) did it give?
Its T/C is 122 % of control and 150 % of control.

With `CC[n+]1ccc(Nc2ccc(NC(=O)c3ccc(C(=O)Nc4ccc(Nc5cc[n+](CC)c(N)n5)cc4)cc3)cc2)nc1N` as the compound, how does the T/C (dose: 1.25 mg/kg/injection, schedule: Q01DX009 (ip), vehicle: saline) read?
Its T/C is 115 % of control and 166 % of control.

And the T/C (dose: 5.0 mg/kg/injection, schedule: Q01DX009 (ip), vehicle: saline)?
The T/C was 119 % of control and 161 % of control.

How did the T/C (dose: 25.0 mg/kg/injection, schedule: Q01DX009 (ip), vehicle: saline with Tween-80) turn out when `O=CNc1ccc(/C=C\c2ccnc3ccccc23)cc1` was run?
Its T/C is 118 % of control and 152 % of control.

With `Oc1ccccc1OB(Oc1ccccc1O)N(CCCl)CCCl` as the compound, how does the T/C [2] read?
The T/C was 119 % of control, 179 % of control, 186 % of control.

What about the T/C (dose: 112.5 mg/kg/injection, schedule: Q04DX003 (ip), vehicle: saline) of the same compound?
Its T/C is 100 % of control and 180 % of control.
